Experimental findings from publication PMC4336329 (PLoS ONE, 2015) are described below.

Each structure is given as a SMILES string. About 14,000 (4.5%) of roughly 310,000 compounds showed an effect of 50% or more. Effects have a minus sign here. The list shows a part of the results.
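Further: peak tail current of the secondary pulse compared with the same well before compound.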

This assay deals with human ether-à-go-go-related gene (hERG) potassium channel (human, UniProt Q12809). Nature of the assay: primary screen, population patch clamp on CHO cells stably expressing hERG.
Chain of human ether-à-go-go-related gene (hERG) potassium channel (Q12809 whole entry, looked up): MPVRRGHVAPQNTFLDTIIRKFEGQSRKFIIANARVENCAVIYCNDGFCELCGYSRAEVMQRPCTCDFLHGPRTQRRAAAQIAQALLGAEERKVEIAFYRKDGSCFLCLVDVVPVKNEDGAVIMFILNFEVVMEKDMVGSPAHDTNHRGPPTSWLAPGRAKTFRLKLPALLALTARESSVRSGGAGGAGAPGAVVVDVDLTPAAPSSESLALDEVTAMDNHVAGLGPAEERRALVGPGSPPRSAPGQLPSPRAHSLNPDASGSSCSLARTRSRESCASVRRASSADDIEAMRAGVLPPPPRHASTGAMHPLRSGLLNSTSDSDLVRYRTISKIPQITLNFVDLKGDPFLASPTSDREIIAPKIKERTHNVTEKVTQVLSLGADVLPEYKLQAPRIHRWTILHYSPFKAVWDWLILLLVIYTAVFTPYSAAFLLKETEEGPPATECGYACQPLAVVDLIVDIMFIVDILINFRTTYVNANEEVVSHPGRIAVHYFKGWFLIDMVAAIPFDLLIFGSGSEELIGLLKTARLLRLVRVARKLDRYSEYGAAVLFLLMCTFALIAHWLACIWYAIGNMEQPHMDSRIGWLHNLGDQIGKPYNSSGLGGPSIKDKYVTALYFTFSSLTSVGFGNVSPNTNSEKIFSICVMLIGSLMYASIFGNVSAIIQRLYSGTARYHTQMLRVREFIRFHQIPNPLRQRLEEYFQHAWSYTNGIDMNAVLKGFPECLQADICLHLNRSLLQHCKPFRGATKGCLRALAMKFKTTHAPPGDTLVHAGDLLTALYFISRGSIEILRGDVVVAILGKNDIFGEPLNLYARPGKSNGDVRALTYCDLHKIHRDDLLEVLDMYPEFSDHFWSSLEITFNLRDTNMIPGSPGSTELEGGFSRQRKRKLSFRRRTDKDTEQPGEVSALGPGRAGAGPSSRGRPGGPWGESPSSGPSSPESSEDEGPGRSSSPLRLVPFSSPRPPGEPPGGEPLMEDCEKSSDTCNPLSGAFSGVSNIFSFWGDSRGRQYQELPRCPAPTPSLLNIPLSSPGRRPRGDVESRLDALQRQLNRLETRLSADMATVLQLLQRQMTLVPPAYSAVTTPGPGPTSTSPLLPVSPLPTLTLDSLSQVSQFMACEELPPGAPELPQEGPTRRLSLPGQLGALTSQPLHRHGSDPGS
As for `C/C(N)=C(/C#N)C(=O)CSc1nc2ccccc2c(=O)n1Cc1ccc(C)cc1`, the “hERG current change (%, negative = inhibition) at 10uM” value is on record as -2.86%.

Turning to `O=C(NC1CCS(=O)(=O)C1)c1ccc2c(c1)OCO2` (stereo not drawn), the “hERG current change (%, negative = inhibition) at 10uM” value stood at 13%.

Turning to `Cc1c(C=O)c2ccccc2n1CC(=O)N1CCc2ccccc2C1`, the “hERG current change (%, negative = inhibition) at 10uM” value was determined as 7.08%. The result for `O=C(OCC(=O)N1CCN(C(=O)c2ccco2)CC1)c1sc2ccccc2c1Cl` reads -10.8%.

For `O=S1(=O)C=CC(Nc2cccc(Cl)c2)C1` (stereo not drawn), the “hERG current change (%, negative = inhibition) at 10uM” value is on record as 16.7%.

Take `O=C(CCc1ccccc1)Nc1ccccc1F`: the “hERG current change (%, negative = inhibition) at 10uM” value was found to be 6.18%. Next, `COc1ccc(C(=O)c2c(C)oc3ccc(O)c(CN4CCOCC4)c23)cc1`: -29.5%; `CC1=C(C(=O)Nc2ccccc2)C(c2ccco2)C(C#N)=C(SCC(N)=O)N1` (stereo not drawn): -3.31%. Consider `N#C/C(=N\Nc1ccc(F)cc1)C(=O)C1CC1`, for which the “hERG current change (%, negative = inhibition) at 10uM” value is 16.7%.

On to `COc1ccc(S(=O)(=O)N2CCN(C(=O)c3cc(C)oc3C)CC2)cc1OC`, for which the “hERG current change (%, negative = inhibition) at 10uM” value is -4.8%.

As to `O=C(CSc1ncccn1)NCc1ccc(Cl)cc1`, the “hERG current change (%, negative = inhibition) at 10uM” value worked out at 4.02%. The result for `COc1ccccc1N(Cc1cc(=O)[nH]c2ccccc12)C(=O)c1ccc([N+](=O)[O-])cc1` reads -28.7%. Next, `CCOc1ccc(NC(=S)N(CC)Cc2ccccc2)cc1`: 0.19%; `CN(C(=O)CSc1ncc(C(F)(F)F)cc1Cl)c1c(N)n(Cc2ccccc2)c(=O)[nH]c1=O`: 8.25%. Take `Cc1ccc(S(=O)(=O)N(C)CC(=O)N2CCCC2)cc1`: the “hERG current change (%, negative = inhibition) at 10uM” value was 1.73%.

Regarding `CC(C)(O)[C@@H]1CC(=O)[C@]2(C)[C@H](CC[C@@]3(C)[C@H](c4ccoc4)OC(=O)[C@H]4O[C@]432)[C@@]1(C)/C=C\C(=O)O`, the “hERG current change (%, negative = inhibition) at 10uM” value came to 26.6%.

As for `CCC(=O)N1c2ccc(S(=O)(=O)N3CCN(c4ccc([N+](=O)[O-])cc4)CC3)cc2CC1C` (stereo not drawn), the “hERG current change (%, negative = inhibition) at 10uM” value is on record as -47%. With `COc1cccc(NC(=O)CNC(=O)c2ccc(F)cc2)c1`, the “hERG current change (%, negative = inhibition) at 10uM” value is reported as -6.34%. As for `COc1ccc(C)cc1NC(=O)NCc1ccc(F)cc1`, the “hERG current change (%, negative = inhibition) at 10uM” value was -13.4%. Next, `CSCCC(C(=O)OCC(=O)c1ccc(C)c(C)c1)N1C(=O)c2ccccc2C1=O` (stereo not drawn): -5.42%. The result for `CC(C)(C)C(=O)NC(=S)NNC(=O)C(c1ccccc1)c1ccccc1` reads -13%; that for `CSc1ccccc1NC(=O)Cn1nnc(-c2ccc(S(C)(=O)=O)cc2)n1`, 23.2%. The result for `COc1ccccc1NC(=O)CSc1nnc2ccc(-c3ccccn3)nn12` reads -29.1%. For the molecule `Cc1ccc(CN2CCSc3ccc(C(=O)N4CCC5(CC4)OCCO5)cc32)cc1`, the “hERG current change (%, negative = inhibition) at 10uM” value is -49.1%. For `CC(C)C(=O)NC(=S)N1CCc2ccccc21`, the “hERG current change (%, negative = inhibition) at 10uM” value turned out to be 16.6%. Next, `O=C(c1cc(-c2cccc(Cl)c2)nc2ccccc12)N1CCN(c2ccccn2)CC1`: 4.63%; `CC(Sc1n[nH]c(N)n1)C(=O)NC1CCCCC1C` (stereo not drawn): 4.4%. The result for `CN1CCN(S(=O)(=O)c2cnccc2N2CCN(c3cccc(Cl)c3)CC2)CC1` reads -9%; that for `CC(C)c1nc2c(s1)CCc1onc(-c3ccc(Cl)cc3)c1-2`, 14.4%; that for `COc1ccc(N2CCN(C(c3cccs3)C(C)NS(C)(=O)=O)CC2)cc1` (stereo not drawn), 7.84%. Next, `Cc1cc(C)nc(/N=C(\N)N2CCCCC2)n1`: -1.13%; `CCOc1ccccc1CNCC1CCCO1.Cl` (stereo not drawn): 11.5%. Turning to `CCCCCc1nnc(NC(=O)c2ccc3nc[nH]c3c2)s1`, the “hERG current change (%, negative = inhibition) at 10uM” value was -8.22%. Consider `O=Cc1sc([O-])nc1-[n+]1ccc2ccccc2c1`, for which the “hERG current change (%, negative = inhibition) at 10uM” value came to 7.51%. Next, `CCOC(=O)N1CCN(S(=O)(=O)N2CCCC(C(=O)NCCc3ccc(C)cc3)C2)CC1` (stereo not drawn): -5.45%. The result for `Cc1ccc(NC(=O)C(NC2CCCc3ccccc32)c2ccccc2)c([N+](=O)[O-])c1.O=C(O)C(=O)O` (stereo not drawn) reads -1.43%; that for `O=C(OCC(=O)N1CCN(c2ccccc2)CC1)c1ccccc1[N+](=O)[O-]`, -28.8%. The result for `O=C(Cc1ccccc1)NNC(=O)Nc1cccc(Cl)c1` reads 7.04%; that for `N/C(=N\OC(=O)COc1ccccc1Cl)c1ccc(Cl)cc1`, 19.7%. As for `CC1Oc2cc3oc4c(O)c(O)ccc4c(=O)c3c(O)c2C1(C)C` (stereo not drawn), the “hERG current change (%, negative = inhibition) at 10uM” value turned out to be 16.2%.

With `Cn1c(=O)cc(SCC(=O)N2CCN(Cc3ccc4c(c3)OCO4)CC2)c2ccccc21`, the “hERG current change (%, negative = inhibition) at 10uM” value is reported as -15.5%. As for `Cc1c2ccccc2nc2c(F)c(N(C)C)c(F)c(F)c12`, the “hERG current change (%, negative = inhibition) at 10uM” value is recorded as 21.1%. The result for `Cc1cc(C)n(CCNC(=O)c2ccc3c(c2)OCO3)n1` reads 12.1%. Next, `COc1ccc(Cl)cc1-n1c(C)cc(C(=O)O)c1C`: 11.1%. Next, `CCn1c(SCC(=O)Nc2ccc(OC)cc2)nnc1-c1ccco1`: -22.3%.

With `COc1ccc(CCNCc2cc3ccc(C)cc3[nH]c2=O)cc1OC`, the “hERG current change (%, negative = inhibition) at 10uM” value is reported as -73.6%. On to `Cn1c(Cc2ccccc2)nnc1SCC(=O)N1CCOCC1`, for which the “hERG current change (%, negative = inhibition) at 10uM” value was -1.67%. As for `COc1ccc(OCC(=O)Nc2cc(OC)ccc2N2CCCCC2)cc1`, the “hERG current change (%, negative = inhibition) at 10uM” value is given as 12.7%. As to `C=C1c2ccccc2NC(=S)N1Cc1ccc2c(c1)OCO2`, the “hERG current change (%, negative = inhibition) at 10uM” value came out at 27.5%. Next, `Cc1c(N2CCCC2)cc2c(c1N)C(C)(C)CC2(C)C`: -5.14%; `COc1ccc(OC)c(Nc2nc(-c3ccc(O)c(O)c3)cs2)c1`: 10.8%; `CCN(CC)S(=O)(=O)c1ccc(S(=O)(=O)N2CCC(N3CCCCC3)CC2)cc1`: -28.3%. For the molecule `CCC(C)NC(=O)C1c2ccccc2C(=O)N1Cc1ccc(OC)cc1OC` (stereo not drawn), the “hERG current change (%, negative = inhibition) at 10uM” value is on record as 12.2%. The result for `CCCN1CCN(C(=O)Cn2ncc3ccccc32)CC1` reads 12.2%. Next, `CC(O)CSc1nc2c(c(=O)[nH]c(=O)n2C)n1CC(O)COc1ccccc1` (stereo not drawn): 17%; `COCCOC(=O)c1[nH]c2c(c1C)C(=O)CC(c1ccccc1)C2` (stereo not drawn): 3.61%. Next, `Cn1c(SCC(=O)NCC2CCCO2)nc2scc(-c3ccccc3)c2c1=O` (stereo not drawn): -9.19%.
